# Reference: PubChem BioAssay AID504832 (National Center for Advancing Translational Sciences (NCATS), 2011)
# Screen size: about 310,000 compounds; about 18,000 (5.8%) were called active. The shares of active, inactive and inconclusive entries below differ from those in the screen. The call rests on the fitted dose curve; in most records, active means well fitted inhibition curve with a large enough effect; inconclusive means small, poorly fitted or top-dose-only effect, or another doubt; inactive means no such curve, though single readings can be large or run the other way. No potency is given beside an inconclusive call; the fits are too rough.
# Test: Primary qHTS for delayed death inhibitors of the malarial parasite plastid, 48 hour incubation
# Settings: P. falciparum luciferase growth in erythrocytes; series mostly up to 28.7 µM; activity change, negative = inhibition: at the top concentration
# Procedure, shortened: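 In quantitative HTS format, infected erythrocytes bearing luciferase-reporter parasites were treated for a single generation at 37 C. Luminescence after adding detection reagent served as the growth measure.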
# On the % scale 0 is the no-effect control and ±100 the full control effect; potency means the concentration at half of the fitted maximal effect; tags describe the fitted curve by direction and shape.
Compound,Potency,"activity change, negative = inhibition"
CCS(=O)(=O)N1CCN(c2ccc([N+](=O)[O-])c(NC(C)c3ccccc3)c2)CC1 (centres undefined),"inconclusive [inhibitor, full curve, poor fit]",
COc1cc([N+](=O)[O-])cc(/C=N/NC(=O)CSc2ccccn2)c1O,,inactive: 11.1%
COc1ccccc1N1CCN(c2cnccn2)CC1,"inconclusive [inhibitor, single point]",
Cc1ccccc1NS(=O)(=O)c1ccc(OCC(=O)NCc2ccco2)cc1,"inconclusive [inhibitor, single point]",
CC(OC(=O)c1nsc(Cl)c1Cl)C(=O)NC(C)(C)C (centres undefined),,inactive: 4.84%
O=C(/C=C/c1cccc(F)c1)c1ccc(N2CCOCC2)cc1,,inactive: 241%
O=C(NCCC1=CCCCC1)C1CCN(S(=O)(=O)c2ccc(Br)s2)CC1,"inconclusive [inhibitor, single point]",
Cc1c(NC(=O)CSc2nnc(-c3cccnc3)n2N)c(=O)n(-c2ccccc2)n1C,"inconclusive [inhibitor, partial curve, poor fit]",
CN(C)CCCN(C(=O)CCc1ccccc1)c1nc2c(F)cccc2s1,"inconclusive [inhibitor, single point]",
COc1ccc(C(=O)c2coc3ccc(O)c(CN4CCCCC4)c23)cc1,active: 7.38 µM,
CCOC(=O)C1CCN(C(=O)C(CCSC)NC(=O)COc2ccccc2)CC1 (centres undefined),"inconclusive [inhibitor, partial curve, poor fit]",
O=C(O)COc1ccc(NC(=O)c2ccc3c(c2)C(=O)N(Cc2ccccc2)C3=O)cc1,"inconclusive [inhibitor, full curve, poor fit]",
c1ccc(-c2nnc3ccc(N4CCC5(CC4)OCCO5)nn23)cc1,"inconclusive [inhibitor, partial curve, poor fit]",
CC(CC(=O)Nc1ccncc1)c1ccccc1 (centres undefined),"inconclusive [inhibitor, partial curve, poor fit]",
COc1ccc(S(=O)(=O)N(CC(=O)NCc2cccnc2)c2ccc(C)cc2)cc1OC,,inactive: -2.87%
CC(C)(C)C(=O)NCCCc1nc2ccccc2n1CCCOc1ccc(Cl)cc1,"inconclusive [inhibitor, single point]",
Cc1ccc(CN2C(=O)c3ccccc3Sc3ccc(C(=O)NCCCN4CCOCC4)cc32)cc1,active: 11.7 µM,
CNC(=O)C(=O)NCC(c1cccs1)S(=O)(=O)c1ccc(C)cc1 (centres undefined),,inactive: 19.8%
Cc1cc(NC(=O)c2ccc(NC(=O)C(C)Oc3ccccc3)cc2)no1 (centres undefined),active: 6.57 µM,
Cc1ccc(C(=O)/C=C/c2ccc(-c3ccccc3[N+](=O)[O-])o2)cc1,,inactive: 5.63%
O=C(Oc1ccc2c3c(c(=O)oc2c1)CCC3)c1ccco1,"inconclusive [inhibitor, single point]",
O=C(CCn1c(=O)oc2ccccc21)N1CCN(c2ccc(F)cc2)CC1,,inactive: -5.36%
Cc1ccc(CNC(=O)Nc2ccc(F)cc2)n1C,,inactive: 28.5%
COC(=O)c1ccc(C23CC4(C2)[C@H](CN(Cc2ccc(C(F)(F)F)cc2)[C@@H]4c2ccccc2)C3c2ccc(Cl)nc2)cc1 (some centres undefined),active: 5.22 µM,
O=C(O)CCCC(=O)Nc1ccccc1C(=O)N1CCOCC1,,inactive: -0.51%

Compound,Potency,"activity change, negative = inhibition"
Cc1cccc(OC2CCN(Cc3nc(CC4CC4)no3)CC2)c1,,inactive: 9.27%
CCN(CC(=O)NCCc1ccccc1)S(=O)(=O)c1ccccc1,,inactive: 1.84%
CCC(=O)N1CCN(c2nnc(-c3ccccc3)c3ccccc23)CC1,,inactive: -14.9%
COc1cccc(NC(=O)Cn2cc(C#N)c3ccccc32)c1,active: 14.7 µM,
CCOc1ccc(-c2nnn(CCC(=O)O)n2)cc1OC,,inactive: 17.6%
CN(C)C(=O)COC(=O)c1cccnc1Nc1ccccc1F,,inactive: 23.5%
COc1ccc(/C(C)=N/NC(=S)NCCc2ccccc2)cc1,"inconclusive [inhibitor, single point]",
Cc1nn(C)c(C)c1NC(=S)Nc1ccc(S(=O)(=O)Nc2ncccn2)cc1,,inactive: -3.46%
CSc1oc(-c2ccco2)nc1S(=O)(=O)c1ccc(Br)cc1,"inconclusive [inhibitor, partial curve]",
O=C(NCC1CCCO1)NC1(C(F)(F)F)Oc2ccccc2O1 (centres undefined),,inactive: -14%
CC(=O)Nc1sc2c(c1CN1CCN(c3ccccn3)CC1)CCCC2,"inconclusive [inhibitor, single point]",
NC(=O)CCSC(=S)N1CCOCC1,"inconclusive [inhibitor, single point]",
CCn1c(COc2cccc(C)c2C)nnc1SCC(=O)N1CCN(c2ccc(OC)cc2)CC1,"inconclusive [inhibitor, partial curve, poor fit]",
Cc1ccc(C(=O)NCCOc2cccc(C)c2)cc1,,inactive: 44.5%
COc1ccc(S(=O)(=O)CCC(=O)N2CCN(c3ccc([N+](=O)[O-])cc3)CC2)cc1,"inconclusive [inhibitor, partial curve, poor fit]",
COc1cccc(N(CC(=O)NCCSc2ccccn2)S(=O)(=O)c2ccccc2)c1,active: 13.1 µM,
COC(=O)N1c2ccccc2C=Cc2ccccc21,"inconclusive [inhibitor, partial curve, poor fit]",
CCOC(=O)c1c(C)[nH]c(C)c1C=O,"inconclusive [inhibitor, full curve, poor fit]",
CC(C)CN(CC(C)C)S(=O)(=O)N1CCC(C(=O)NCc2ccc(F)cc2)CC1,"inconclusive [inhibitor, single point]",
COc1ccc(C)cc1S(=O)(=O)Nc1ccccc1C,"inconclusive [inhibitor, single point]",
COc1ccccc1CC(=O)NCCc1c[nH]c2ccccc12,,inactive: -28%
COc1ccc(Cl)cc1C(=O)n1cnc2ccccc21,,inactive: 21.8%
CCCCNC(=O)C1CCC(CNc2nc(=S)[nH]c3ccccc23)CC1 (centres undefined),,inactive: 11.8%
CCc1ccc(NC(=O)C2CCCN2S(=O)(=O)c2ccc3c(c2)C(C)(C)C(=O)N3C)cc1 (centres undefined),"inconclusive [inhibitor, full curve, poor fit]",
